Experimental findings from the supplement of paper PMC10126150 are described below.

This data set concerns ATP. The experiment in a line: switch fluorescence ratio, 500 uM ATP over buffer (Cy3 cluster intensity, sum of 5 cycles each) (fold (ratio)); higher = stronger signal-on switching upon ATP binding; sequences stand for … in TCGTCGGCAGCGTCAGATGTGTATAAGAGACAGTTTTTTTTTTTTTTTTTTTTTTTTT…TC. The conditions noted are these: aptamer strand: ATP DNA aptamer (quencher-CACCTGGGGGAGTATTGCGGAGGAAGG + anchor), 100 nM annealed; ATP concentration: 500 uM; one replicate. The gist of the method: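 The quencher-labelled ATP aptamer, at 100 nM, was annealed to Cy3-labelled switching-strand clusters on a modified Illumina MiSeq flow-cell. The clusters were imaged in selection buffer, then after 15 min with 500 uM ATP at 22 °C, and this buffer/ATP cycle ran five times with NaOH stripping and re-annealing between runs. Per-cluster fluorescence ratios, summed target-cycle over summed buffer-cycle Cy3 intensity, were averaged per switch-domain sequence. Clusters outside 100-1000 RFU were excluded.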

Sequences with one replicate were seen in a single cluster, so their values are uncertain.
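Note: ATP exposure 15 min at 22 °C before imaging.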

For ATTAGCGATG, the switch fluorescence ratio is 0.971.
As for GTGTACACCG, the figure is 0.955; as for TCAATGTCTA, 1; as for CGCCACGGTA, 1.04.
As for GTGGTGAGCA, the figure is 1.02; as for GCTTCGATTA, 1.02; as for ATTCTTAACT, 1.1.
In the case of TGAATTGGAG it was 1.
On to TTCCGAGAAT, for which the switch fluorescence ratio came out at 1.17.
With TGACATTTCT, the switch fluorescence ratio is 0.968.
In the case of ATGCTTAATT it was 0.987; in that of AACCCTTTAA, 0.993; in that of TTAACTCACC, 1.17.
In the case of TACCTCGTTG it was 1.03.
With GGGAGATGAA, the switch fluorescence ratio came to 1.02.
As for ACACGACTTT, the figure is 1.09; as for TCGATAAACA, 0.976; as for TGCCAAAGCG, 0.969.
As for TTAGCATGTA, the figure is 0.99; as for CGCGGGTGGA, 1.12.
For TCGTTATAT, the switch fluorescence ratio is 1.06.
Turning to GCGAAGAACC, the switch fluorescence ratio is 0.968.
As for GCCCATAGTG, the figure is 1.25; as for TGTCCCGATA, 1.02.
On to AGGTGGTTGC, for which the switch fluorescence ratio was 0.979.
For CGTCTGAGTC, the switch fluorescence ratio stood at 0.998.
As for CATTTAGAAA, the figure is 1.02.
Turning to TCGATGGGCG, the switch fluorescence ratio was determined as 0.999.
As for AGTGGTTTTG, the figure is 0.965; as for GGGGATCTGC, 1.05.
As for ATGTCCCACC, the figure is 1.04; as for AGAGTAGGTG, 0.983; as for ACCAATGCGT, 1.08.
As for TAATTACCAA, the figure is 1.04; as for GACCATGCCG, 1.04.
Take TGGCAACCAG: the switch fluorescence ratio turned out to be 0.973.
With AAGCAGAATG, the switch fluorescence ratio came to 0.971.
As for GTAGCTGTGT, the figure is 0.997.
As for ATAAGCCATA, the figure is 1.02.
In the case of ACGGAGACCA it was 1.09.
GGGTACACCT: the switch fluorescence ratio amounted to 1.08.
With TTTGAAGACC, the switch fluorescence ratio is 1.26.
In the case of CTGGTCTTCA it was 1.04.
In the case of GTAGTTGCTC it was 1.01; in that of TCAAGGGTCG, 0.999; in that of CAGAGGTGAT, 1.06.
As for ATCGTTGTTC, the figure is 1.01; as for TTAGCTAGAC, 2.92.
Take TTAACGTCTC: the switch fluorescence ratio stood at 0.996.
Consider GTAAGAATAG, for which the switch fluorescence ratio was 1.03.
In the case of AGCGTACGTC it was 0.97; in that of GAAGGTACTA, 1.06.
In the case of TGCTAACGGT it was 1.02; in that of TTTCGATCTG, 0.998.
As for ACTAGAAGAG, the figure is 0.99.
On to GTGCACGTA, for which the switch fluorescence ratio was determined as 0.957.
In the case of GTAGATAACG it was 1.02.
As for TCAGCATATA, the figure is 1.53.
For the sequence ATTTTAGAA, the switch fluorescence ratio was found to be 0.994.
As for GAGTCGCTAG, the figure is 1.01; as for CGTGATTATC, 1.06.
As to AACGATACGA, the switch fluorescence ratio is 1.36.
In the case of CACTGACT it was 1.34.
In the case of AGGGATCCAT it was 1.02; in that of TGAGGTTGGG, 1.01.
In the case of TGTATTTAG, the switch fluorescence ratio amounted to 0.996.
In the case of GAGAATCTTT it was 1.01; in that of AGCAGAAA, 1.19; in that of TTAGTGGAG, 0.98.
As for GTGAACGGGG, the figure is 1.03.
In the case of TGAGACAGTA it was 1.01; in that of CTAAGGGCAT, 1.02.
As for ACGTGCACTA, the switch fluorescence ratio was determined as 1.06.
In the case of CTACCAGAGA it was 1.02; in that of TTGGGTGGA, 0.974; in that of ATTAATAGAT, 1.01.
As for ATCTAACA, the figure is 1.03; as for CGTGGTAGGT, 1.04; as for TGGATAATTA, 1.08.
With ACGTGGG, the switch fluorescence ratio was 1.03.
As for AAATCTTATG, the figure is 1.01; as for CTGACTGTT, 1.
Turning to CTTAAAGGGG, the switch fluorescence ratio amounted to 1.
As for TCGGTGCGTT, the figure is 0.989.
As to ATTCTCGAGG, the switch fluorescence ratio was 0.964.
As for GTGGTTGTG, the figure is 0.965.
As for AAAAGGTGAG, the figure is 0.991.
In the case of AGGAAGAGC it was 1.02.
As for GTTATGTCTT, the switch fluorescence ratio worked out at 0.983.
As for TTCAGCTCGA, the figure is 1.11; as for GTCGAATCTA, 0.966.
Turning to TTATAGGCCC, the switch fluorescence ratio stood at 0.995.
As for TGAATCCGTG, the figure is 0.951; as for GAGGTTTTAA, 0.962; as for ATTAGACACG, 1.04.
In the case of TTATATGCCT it was 1.06; in that of TGTTCATTGT, 0.95.
In the case of GATCTCGTTA it was 0.985; in that of TGGGTTAACG, 1.01; in that of GACGGGATGA, 1.11.
Regarding GACACATTAA, the switch fluorescence ratio was found to be 1.16.
In the case of GACTCTGCT it was 1.08.
As for AATGACCTCT, the figure is 0.994.
Consider AAATCTCCCT, for which the switch fluorescence ratio worked out at 1.13.
Turning to AGTTAATT, the switch fluorescence ratio turned out to be 0.94.
In the case of CCACATTAAT it was 1.06; in that of TCTCGTAAAG, 1.01; in that of CTCACGACAG, 1.03.
As for AGCCTGACG, the figure is 1.09; as for GCAATAGTAG, 1.41; as for TATTGAGTT, 1.01.
On to GGCAGGGATA, for which the switch fluorescence ratio is 1.
As for GAGAGATTTC, the figure is 1.05; as for ACCGATTGTG, 1.02; as for TGAGACCTGC, 0.902.
As for TTCATTATG, the figure is 1.06; as for AGAGGAGCAT, 1.07.
In the case of CGTGACGGTC it was 1; in that of ACCTTTTGCG, 1.03; in that of GAAGTCCTTG, 1.06.
As for TCAGGGAAA, the switch fluorescence ratio came to 0.968.
